# About 910 (0.23%) of roughly 390,000 compounds were called active. About 5% were inconclusive and are not listed. Calls come from the whole dose curve; as a rule, active = well fitted inhibition curve with a large enough effect; inconclusive = small, poorly fitted or top-dose-only effect; inactive = no such curve, though single readings can be large or run the other way. The list shows a part of the results, in another mix than the full data.
# Biological target: Ubiquitin carboxyl-terminal hydrolase 1 (Homo sapiens) (UniProt O94782)
# Chain of UniProt O94782 (O94782 whole entry, looked up): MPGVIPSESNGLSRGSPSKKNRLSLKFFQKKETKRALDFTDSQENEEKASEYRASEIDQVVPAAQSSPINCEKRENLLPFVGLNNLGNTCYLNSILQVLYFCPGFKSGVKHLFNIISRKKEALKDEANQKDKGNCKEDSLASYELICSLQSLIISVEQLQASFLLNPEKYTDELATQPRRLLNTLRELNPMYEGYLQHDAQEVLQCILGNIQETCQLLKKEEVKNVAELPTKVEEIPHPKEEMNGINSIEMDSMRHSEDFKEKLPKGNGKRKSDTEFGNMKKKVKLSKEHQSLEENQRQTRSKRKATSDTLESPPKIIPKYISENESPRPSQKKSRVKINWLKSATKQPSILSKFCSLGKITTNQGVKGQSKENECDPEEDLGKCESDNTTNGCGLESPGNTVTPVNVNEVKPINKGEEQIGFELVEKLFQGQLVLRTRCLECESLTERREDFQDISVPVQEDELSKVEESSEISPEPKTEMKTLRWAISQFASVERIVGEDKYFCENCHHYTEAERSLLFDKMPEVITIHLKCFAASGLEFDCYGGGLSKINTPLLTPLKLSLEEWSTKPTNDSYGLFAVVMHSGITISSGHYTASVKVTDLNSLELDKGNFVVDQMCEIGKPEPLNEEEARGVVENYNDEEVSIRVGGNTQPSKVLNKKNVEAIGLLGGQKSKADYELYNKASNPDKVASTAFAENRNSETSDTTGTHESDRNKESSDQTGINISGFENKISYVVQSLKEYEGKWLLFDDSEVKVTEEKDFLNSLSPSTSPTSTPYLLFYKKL
# Assay: Inhibitors of USP1/UAF1: Primary Screen; note: nearly all actives have a fitted effect of over 60% in size
# Settings: recombinant USP1/UAF1, Ub-Rhodamine cleavage fluorescence; series mostly up to 57.1 µM; activity change, negative = inhibition: at the top concentration
# From the text: Deubiquitinating enzymes (DUBs) are a class of enzymes that can cleave isopeptide bond formed between the C-terminal carboxylate of ubiquitin and a lysine side-chain amino group on the target protein. Among them, ubiquitin specific proteases (USPs) constitute the largest DUB family. Human USPs are emerging as promising targets for pharmacological intervention because of their connection to a number of human diseases, including prostate, colon and breast cancer (1, 2), pediatric acute lymphoblastic leukemia (3), and familial cylindromatosis (4). The advantage of inhibiting USPs lies in the potential specificity of therapeutic intervention that can lead to better efficacy and reduce nonspecific side effects. In a collaboration between the University of Delaware and the NIH Chemical Genomics Center, a high-throughput screen assay was developed to screen for USP1/UAF1 inhibitors. This miniaturized assay has a fluorescent read-out and is used to screen the NIH Molecular Libraries Small Molecule Repository (MLSMR) in order to identify a small molecule that inhibits USP1. NIH Chemical Genomics Center [NCGC] NIH Molecular Libraries Probe Centers Network [MLPCN] MLPCN Grant: DA030552 Assay Submitter (PI): Zhihao Zhuang, University of Delaware 1. Priolo, C., et al. (2006) The isopeptidase USP2a protects human prostate cancer from apoptosis. Cancer Res 66, 8625-8632 2. Popov, N., et al. (2007) The ubiquitin-specific protease USP28 is required for MYC stability. Nat Cell Biol 9, 765-774 3. De Pitta, C., et al. (2005) A leukemia-enriched cDNA microarray platform identifies new transcripts with relevance to the biology of pediatric acute lymphoblastic leukemia. Haematologica 90, 890-898 4. Kovalenko, A., et al. (2003) The tumour suppressor CYLD negatively regulates NF-kappaB signalling by deubiquitination. Nature 424, 801-805
# 3 microliters of reagents (buffer in columns 3 and 4 as negative control and 1nM USP1/UAF1 complex in columns 1, 2, and 5-48) are dispensed into Greiner black solid bottom 1536-well assay plates. Compounds are then transferred via Kalypsys pin tool equipped with 1536-pin array (10nl slotted pins, V&P Scientific, San Diego, CA). Following an incubation step of 15 min at room temperature, 1ul of Ub-Rho substrate (150nM final concentration) is added to initiate the reaction. The plates are immediately centrifuged at 1000 rpm for 15 seconds, and subsequently transferred to a ViewLux high-throughput CCD imager (PerkinElmer) wherein kinetic measurements of fluorescence are acquired using 480 nm excitation/540 nm emission filter set (6 reads every 60 seconds, see Table 1). All reagents are diluted in an assay buffer consisting of 50mM HEPES (pH 7.8), 0.5mM EDTA, 0.1 mg/ml BSA, 1mM TCEP, and 0.01% Tween-20.
# % is set by controls: 0 for no effect and ±100 for the full control effect; potency is the fitted concentration of half-maximal effect.
SMILES,"activity change, negative = inhibition",Potency
Cc1ccc(N=Nc2c(O)[nH]c(=O)[nH]c2=O)cc1S(=O)(=O)Nc1ccc(Br)cc1,inactive: 41.9%,–
COc1cccc(N2C(=O)NC(=O)/C(=C\c3cn(C)c4ccccc34)C2=O)c1,–,active: 11.2 µM
O=c1[nH]c(=S)n(-c2ccc(Br)cc2)c(O)c1C=Nc1ccc(N2CCOCC2)cc1,–,active: 31.6 µM
C[C@]12CC[C@@H](O)C[C@H]1CC[C@@H]1[C@@H]2CC[C@]2(C)C(=O)CC[C@@H]12,inactive: 6.66%,–
C#CCN1C(=O)S/C(=C\c2ccc(N3CCOCC3)cc2C)C1=O,inactive: 148%,–
Cn1ccnc1P(=S)(c1nccn1C)c1nccn1C,inactive: -2.1%,–
O=c1cc(C(F)(F)F)c2cc3c4c(c2o1)CCCN4CCC3,inactive: 375%,–
COc1cc(C2c3cc4c(cc3C(O)C3COC(=O)C23)OCO4)cc(OC)c1OC (stereo not drawn),inactive: -15.3%,–
C[C@]12CCC(=O)C=C1CC[C@@H]1C2[C@H](O)C[C@]2(C)C(=O)CCC12 (stereo partly drawn),inactive: -19.1%,–
COc1ccccc1N1CCN(S(=O)(=O)c2ccc3c(c2)oc(=O)n3C)CC1,inactive: -18.6%,–
CCn1nc(-c2cccs2)nc2c(=O)n(C)c(=O)nc1-2,–,active: 0.224 µM
CCOC(=O)C1CCCN(c2ccc([N+](=O)[O-])c3nonc23)C1 (stereo not drawn),–,active: 25.1 µM
CN1C2CC(OC(=O)C(CO)c3ccccc3)CC1C1OC12 (stereo not drawn),–,inactive
COc1ccc2cc1Oc1ccc(cc1)C[C@H]1c3cc(c(OC)cc3CCN1C)Oc1c(OC)c(OC)cc3c1[C@H](C2)N(C)CC3,inactive: -21.9%,–
C[C@@H]1CN([C@@H](C)CO)C(=O)CCCn2nncc2CO[C@@H]1CN(C)C(=O)Oc1cccc2ccccc12,inactive: -18.3%,–
C[C@H]1CN([C@@H](C)CO)C(=O)c2cccc(NC(=O)c3ccc(-c4nccs4)cc3)c2O[C@@H]1CN(C)C(=O)Nc1cccc2ccccc12,inactive: -23.5%,–
CCCCCCCCCCCCCCCC[n+]1ccccc1,inactive: -12.9%,–
COc1ccc2c(c1OC)C(=O)O[C@H]2[C@@H]1c2cc3c(cc2CCN1C)OCO3,inactive: 17.6%,–
C[C@]12CCC3C(CC[C@@H]4C[C@H](O)CC[C@]34C)C1CCC2=O (stereo partly drawn),inactive: -7.67%,–
CCN(CC)c1ccc(N=Cc2c(O)n(CCC3=CCCCC3)c(=O)[nH]c2=O)cc1,inactive: 193%,–
CN(C)[C@@H]1C(=O)C(C(N)=O)=C(O)[C@@]2(O)C(=O)C3=C(O)c4c(O)cccc4[C@@](C)(O)C3[C@H](O)C12 (stereo partly drawn),inactive: -20.5%,–
CCCC[N+]1(C)C2CC(OC(=O)C(CO)c3ccccc3)CC1C1OC12 (stereo not drawn),inactive: -24.5%,–
C[C@@H]1CCC2[C@@H](C)C(=O)O[C@@H]3OC4(C)CCC1[C@@]23OO4 (stereo partly drawn),inactive: 28.6%,–
COc1ccc(OC(=O)N(C)C[C@H]2OCc3cnnn3CCCC(=O)N([C@H](C)CO)C[C@H]2C)cc1,inactive: -3.43%,–
Cc1ccc(S(=O)(=O)N(C)C[C@H]2Oc3cc(Br)ccc3S(=O)(=O)N([C@H](C)CO)C[C@@H]2C)cc1,inactive: -18.1%,–
COc1ccc(-n2c(/C=C3\C(=O)Nc4ccccc43)nc3ccccc3c2=O)cc1,inactive: -14.2%,–
CC(C)C[C@H]1C(=O)N2CCC[C@H]2[C@]2(O)O[C@](NC(=O)[C@@H]3C=C4c5cccc6[nH]cc(c56)C[C@H]4N(C)C3)(C(C)C)C(=O)N12,–,active: 17.8 µM

SMILES,"activity change, negative = inhibition",Potency
[O-]c1ccccc1-[n+]1c(-c2ccccc2)cc(-c2ccccc2)cc1-c1ccccc1,inactive: -14.7%,–
C[C@]12CC[C@H](O)C[C@H]1CC[C@@H]1[C@@H]2CC[C@]2(C)C(=O)CC[C@@H]12,inactive: -13.4%,–
COc1cc2c(c(OC)c1OC)-c1ccc(O)c(=O)cc1C(NC(C)=O)CC2 (stereo not drawn),inactive: -18.8%,–
COC(=O)C1=CO[C@@H](O[C@@H]2O[C@H](CO)[C@@H](O)[C@H](O)[C@H]2O)C2C(CO)=CCC12 (stereo partly drawn),inactive: -26.3%,–
CC(C)c1ccc(C(c2c(O)c3ccccc3oc2=O)c2c(O)c3ccccc3oc2=O)cc1,–,active: 28.2 µM
Cc1ccc(OC(=O)N(C)C[C@@H]2OCc3cnnn3CCCC(=O)N([C@@H](C)CO)C[C@H]2C)cc1,inactive: -14.7%,–
C[C@]12CCC3C(CC[C@@H]4C[C@@H](O)CC[C@]34C)C1CC[C@@H]2O (stereo partly drawn),inactive: -20.7%,–
Cc1ccc([C@H]2C[C@@H](n3cc(C4CC4)nn3)[C@H](O)CN2Cc2cccs2)cc1,inactive: -0.951%,–
COc1ccc2c(c1OC)CN1CCc3cc4c(cc3C1C2)OCO4 (stereo not drawn),inactive: -13.2%,–
COc1ccc(OC)c(N=Cc2c(O)n(Cc3ccccc3)c(=S)[nH]c2=O)c1,–,active: 28.2 µM
Oc1ccc2c3c1O[C@H]1[C@@H](O)CC[C@@]4(O)[C@@H](C2)N(CC2CCC2)CC[C@]314,inactive: -13.7%,–
C[C@H]1COC(=O)[C@@H](Cc2ccc(F)cc2)CC/C=C/C[C@H](CC(=O)N(CCO)Cc2ccccc2)C(=O)N1,inactive: -16.8%,–
Cc1ccc(OC(=O)N(C)C[C@H]2OCc3cnnn3CCCC(=O)N([C@@H](C)CO)C[C@H]2C)cc1,inactive: 1.81%,–
CC1CCC2C(C)C(=O)OC3OC4(C)CCC1C32OO4 (stereo not drawn),inactive: -7.81%,–
COc1ccc2c(c1OC)C(=O)OC2C1c2cc3c(cc2CCN1C)OCO3 (stereo not drawn),inactive: -20.3%,–
C[C@H](CO)N1C[C@H](C)[C@H](CN(C)C(=O)Oc2cccc3ccccc23)OCc2cnnn2CCCC1=O,inactive: -19.1%,–
O=C1NC(=O)N(c2ccc3c(c2)OCO3)C(=O)/C1=C\c1ccc(N2CCCCC2)o1,inactive: -23.8%,–
Cc1ccc(OC(=O)N(C)C[C@H]2OCc3cnnn3CCCC(=O)N([C@H](C)CO)C[C@@H]2C)cc1,inactive: 0.259%,–
COCCCn1c(N)c(C(=O)NCCC(C)C)c2nc3ccccc3nc21,–,active: 22.4 µM
C[C@@H]1CN([C@@H](C)CO)C(=O)CCCn2nncc2CO[C@H]1CN(C)C(=O)Oc1cccc2ccccc12,inactive: 0.941%,–
C[C@]12CCC3C(CC[C@H]4C[C@H](O)CC[C@]34C)C1C[C@H](O)[C@@H]2O (stereo partly drawn),inactive: -16%,–
O=C1NC(=S)N(c2ccc(F)cc2)C(=O)/C1=C\c1ccoc1,–,active: 28.2 µM
COc1ccc(OC(=O)N(C)C[C@@H]2OCc3cnnn3CCCC(=O)N([C@@H](C)CO)C[C@H]2C)cc1,inactive: -28.3%,–
C[C@]12CCC3C(CC[C@H]4C[C@@H](O)CC[C@]34C)C1C[C@@H](O)[C@H]2O (stereo partly drawn),inactive: -16%,–
CC(=O)C1CCC2C3CCC4CC(O)CCC4(C)C3CCC12C (stereo not drawn),inactive: -27.5%,–
O=C(/C=C/c1c[nH]c2ccccc12)c1c(O)n(CCc2ccccc2)c(=O)[nH]c1=O,–,active: 25.1 µM

# Reference: PubChem BioAssay AID743255 (National Center for Advancing Translational Sciences (NCATS), 2014)
